In publication PMC4336329 (PLoS ONE, 2015):
Hit rate of the full screen: of about 310,000 compounds, about 2,200 (0.71%) showed an effect of 50% or more. The effect is printed as a negative number. The list shows a part of the results.

Target: human ether-à-go-go-related gene (hERG) potassium channel (human, UniProt Q12809)
Experiment: primary screen, population patch clamp on CHO cells stably expressing hERG

Sequence of human ether-à-go-go-related gene (hERG) potassium channel (Q12809 whole entry, looked up): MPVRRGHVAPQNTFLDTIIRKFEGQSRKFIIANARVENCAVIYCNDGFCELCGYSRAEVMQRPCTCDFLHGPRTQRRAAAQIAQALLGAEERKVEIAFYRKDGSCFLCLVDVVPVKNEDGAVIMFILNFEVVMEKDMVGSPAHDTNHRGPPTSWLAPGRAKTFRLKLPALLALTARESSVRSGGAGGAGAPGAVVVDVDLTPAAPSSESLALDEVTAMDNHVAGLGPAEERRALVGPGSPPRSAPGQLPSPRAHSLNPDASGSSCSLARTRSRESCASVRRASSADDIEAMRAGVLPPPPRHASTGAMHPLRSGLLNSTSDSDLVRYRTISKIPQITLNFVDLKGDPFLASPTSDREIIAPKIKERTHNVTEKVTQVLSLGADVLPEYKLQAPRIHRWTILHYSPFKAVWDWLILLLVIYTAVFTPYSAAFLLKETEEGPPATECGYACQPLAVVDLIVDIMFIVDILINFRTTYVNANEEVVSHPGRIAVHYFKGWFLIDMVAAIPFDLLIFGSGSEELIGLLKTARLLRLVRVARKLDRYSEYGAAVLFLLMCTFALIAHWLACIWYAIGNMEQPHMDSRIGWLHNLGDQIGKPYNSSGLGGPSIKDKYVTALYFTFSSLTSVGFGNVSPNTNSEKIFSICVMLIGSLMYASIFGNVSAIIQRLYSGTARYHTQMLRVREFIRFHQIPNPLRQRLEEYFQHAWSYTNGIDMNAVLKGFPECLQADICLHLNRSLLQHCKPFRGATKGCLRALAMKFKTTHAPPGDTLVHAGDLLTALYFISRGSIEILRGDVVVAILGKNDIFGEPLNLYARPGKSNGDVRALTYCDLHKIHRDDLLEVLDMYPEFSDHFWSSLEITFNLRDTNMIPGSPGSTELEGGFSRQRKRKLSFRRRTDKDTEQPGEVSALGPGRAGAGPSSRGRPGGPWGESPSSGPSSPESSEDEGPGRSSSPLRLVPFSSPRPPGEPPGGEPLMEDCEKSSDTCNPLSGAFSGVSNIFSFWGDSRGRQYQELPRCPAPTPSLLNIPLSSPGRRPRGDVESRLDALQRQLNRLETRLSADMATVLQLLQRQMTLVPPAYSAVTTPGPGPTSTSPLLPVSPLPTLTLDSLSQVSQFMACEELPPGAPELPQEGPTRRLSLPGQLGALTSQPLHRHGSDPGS

SMILES | hERG current change (%, negative = inhibition) at 1uM
CS(=O)(=O)c1ccc(C(=O)N(CCc2ccccc2)Cc2ccccc2)cc1 | 8.18%
COc1ccc(/C=C(\C#N)C(=O)OCC(=O)N2CC(C)OC(C)C2)cc1 (stereo not drawn) | 5.91%
COc1ccc(NC(=O)CN2CCN(S(=O)(=O)N3CCCCCC3)CC2)cc1 | -60.8%
CCN(CC(=O)Nc1ccc(OC)cc1)C(=O)c1ccc(Cl)c(S(=O)(=O)N2CCCC2)c1 | 11.9%
COc1ccc(/C=N/NC(=O)c2ccc(O)cc2O)cc1CSc1ccccn1 | 11.7%
Cc1ccc(-n2[nH]c(C)c(/C=N/c3ccccn3)c2=O)cc1 | 4.28%
O=C(c1ccc(N2C(=O)C3C4c5ccccc5C(c5ccccc54)C3C2=O)cc1)N1CCOCC1 (stereo not drawn) | 7.89%
Cc1ccc(OCCSc2nc3ccccc3n2CC(=O)O)c(C(C)C)c1 | -1.26%
C=CCN(C(=O)c1csnn1)C(C(=O)NCc1ccccc1)c1c(F)cccc1Cl (stereo not drawn) | 5.34%
Cc1[nH]c(C)c(S(=O)(=O)NCc2ccco2)c1C(=O)N1CCCCC1 | 12.1%
O=C(N/C(=C/c1cccnc1)C(=O)N1CCOCC1)c1ccccc1F | 4.61%
CCc1ccccc1NC1=NCC(=O)N1C1CCCCC1 | 5.94%
Cn1c(CSCC(=O)Nc2ccccc2)nnc1SCc1ccccc1 | 3.05%
S=c1[nH]nc(-c2ccccc2Cl)n1Cc1ccccc1 | 7.49%
COc1ccccc1CNC(=O)C(=O)NCC1OCCN1S(=O)(=O)c1ccccc1 (stereo not drawn) | 8.16%
Cc1cc(C)c(S(=O)(=O)N2CCN(c3ccccc3)CC2)c(C)c1 | 15.7%
Cc1cc([N+](=O)[O-])ccc1NC(=O)/C=C/c1cccs1 | -4.91%
Cc1cc(C)n2nc(SCC(=O)N(C)c3ccccc3)nc2n1 | 12.3%
CN1C2C=C(N(CCc3ccccc3)C(=O)c3ccc(Cl)cc3)CC1CC2.Cl (stereo not drawn) | -19.7%
O=C(c1ccco1)N1CCN(S(=O)(=O)c2cccs2)CC1 | -13.6%
CCOc1ccc(NC(=O)CN(C)C(=O)Cn2c(=O)cnc3ccccc32)cc1OCC | 21.7%
COc1ccc(-n2nc(C(=O)NCC(=O)NC3CCCC(C)C3C)c3ccccc3c2=O)c(OC)c1 (stereo not drawn) | 12.5%
CCOC(=O)CSc1nc2ccccc2c(=O)n1CC(C)C | 8.2%

SMILES | hERG current change (%, negative = inhibition) at 1uM
Cc1ccnc(NC(=O)c2ccc(S(=O)(=O)N3CCCCCC3)cc2)c1 | 9.01%
COc1cccc(/C=N/NC(=O)C(=O)N2CCCCCC2)c1OC | 10.3%
O=C(Nc1cccc(C(F)(F)F)c1)c1cc(-c2cccs2)on1 | 12.7%
CCc1nc2ccccc2c(=O)n1NCCc1ccccc1 | 4.18%
CN(C)S(=O)(=O)c1ccccc1C#N | -3.86%
CCc1[nH]nc2c1C(c1cccnc1)C(C#N)=C(N)O2 (stereo not drawn) | 4.11%
CCCCN(C(=O)c1ccc(N2CCCC2=O)cc1)c1c(N)n(CCC)c(=O)[nH]c1=O | 12.2%
CN(Cc1cccs1)C(=O)CCNS(=O)(=O)c1ccc(Br)cc1 | -4.09%
COc1ccc(NC(=O)CCCn2cnc3ccccc3c2=O)cc1 | 13.7%
Cc1ccc(C(=O)O)cc1N1C(=O)c2cccc3cc(Br)cc(c23)C1=O | 4.88%
Cc1ccc(N=C(N)N=C(N)N)c(C)c1 | 11.2%
Cc1cccc2sc(N(CCCN(C)C)C(=O)c3nc4ccccc4s3)nc12.Cl | 3.73%
COc1ccc(/C=N/NC(=O)c2ccc(COc3cccc4cccnc34)cc2)cc1O | 9.45%
COc1ccc(C(=O)N/C(=C/c2ccco2)C(=O)NC2CCS(=O)(=O)C2)cc1 (stereo not drawn) | 16.6%
COC(=O)/C(=C1/Oc2ccc(C)cc2S1)C(F)(F)F | 15.5%
O=C(NCCO)c1cccc2c1-c1ccccc1C2=O | 7.64%
CC(=O)Nc1ccc(S(=O)(=O)N2CCC(N3CCCCCC3)CC2)cc1.O=C(O)C(=O)O | 10.4%
O=C(Cn1cc(C(=O)c2ccco2)c2ccccc21)Nc1ccccc1F | 3.79%
CCCCNCC(O)(c1ccc(Cl)cc1)c1ccc(Cl)cc1 | -5.39%
Cc1nnc(N(C)C(=O)c2ccc3c(c2)OCO3)s1 | 15.4%
O=C(Cc1cccs1)Nc1nc(-c2ccc(F)c(F)c2)cs1 | 20.8%
COc1cc(C2N3CC4(C)CN2CC(C)(C3)C4)ccc1O (stereo not drawn) | 2.15%
